The text below walks through data of patent US20250223369A1 (WISTAR INSTITUTE OF ANATOMY AND BIOLOGY, published 2025).

This test deals with T1, human Siglec 7 on cells (human, UniProt Q9Y286 19-467).
T1 construct: whole, on cells; also called HEK293T-Siglec7 cells
The experiment in a line: flow cytometry on Siglec 7 overexpressing HEK293T cells. A general note: Flow cytometry measures light scatter and fluorescence of single cells or particles in a stream.

T1 sequence (Q9Y286 19-467): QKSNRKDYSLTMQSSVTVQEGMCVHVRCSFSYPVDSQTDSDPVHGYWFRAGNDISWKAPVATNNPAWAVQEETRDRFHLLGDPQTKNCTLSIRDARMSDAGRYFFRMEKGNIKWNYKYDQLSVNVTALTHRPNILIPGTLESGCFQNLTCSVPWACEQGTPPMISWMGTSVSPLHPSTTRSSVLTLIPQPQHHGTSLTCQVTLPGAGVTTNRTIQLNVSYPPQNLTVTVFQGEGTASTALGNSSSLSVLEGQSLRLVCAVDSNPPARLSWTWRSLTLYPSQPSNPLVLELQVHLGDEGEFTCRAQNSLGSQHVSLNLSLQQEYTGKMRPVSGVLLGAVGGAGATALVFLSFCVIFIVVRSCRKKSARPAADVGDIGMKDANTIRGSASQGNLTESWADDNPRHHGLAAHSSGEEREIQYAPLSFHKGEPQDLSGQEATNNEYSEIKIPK

B1: DDAP-NKCE (FSHR×Siglec 7 bispecific NK cell engager) (bispecific antibody)
scFv: [not shown - about 100 residues]FGQGTKVEIKGGGGSGGGGSGGGGSQVQLVESGGGVVQPGRSLRLSCAASGFTFRTDAMHWVRQAPGKGLEWVAVIWYDGSIKYHADSVKGRFTISRDNSKNTLYLEMNSLRAEDTAVYYCARDRSNSLDHWGQGILVSVSSGGGGSEVQLVESGGGLVQPGGSLRLSCSFSGFSLSTSGMGVGWIRQAPGKGLEWVAHIWWDDDKRYNPALKSRFTLSVDRSKNTLYLQMNSLRAEDTATYYCVQINYGNYRFDNWGHGTLVTVSSGGGGSGGGGSGGGGSDIQMTQSPSSLSASVGDRVTISCRASESVDNYGISFLNWFQQKPGKAPKLLIYAASNQRSGVPSRFSGSGSGTDFTLTISSLQPEDFATYFCQQSKEVPWTFGQGTKVEIKR
notes: One chain: scFv of DB-S7-2 followed by scFv of the FSHR antibody (DDAP / D2AP11), GS linkers; Expressed in Expi293F cells as a ~55 KDa molecule; also called DB7.2×D2AP11 NKCE; DB7.2×D2AP11
Consider B1, for which the binding result is “binds”.
